{"source": "the supplement of paper PMC12217912", "parents": {"B1": {"name": "TEV protease; numbered along this chain (parent)", "chain": "MGESLFKGPRDYNPISSSICHLTNESDGHTTSLYGIGFGPFIITNKHLFRRNNGTLVVQSLHGVFKVKDTTTLQQHLVDGRDMIIIRMPKDFPPFPQKLKFREPQREERICLVTTNFQTKSMSSMVSDTSCTFPSGDGIFWKHWIQTKDGQCGSPLVSTRDGFIVGIHSASNFTNTNNYFTSVPKNFMELLTNQEAQQWVSGWRLNADSVLWGGHKVFMVKPEEPFQPVKEATQL"}}, "note": "This is one part of the list. The full chains were built here from the parent and the listed change. Values near 0.05 are background.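 Further: Bxb1 expression induced with 0.2% (w/v) L-rhamnose at OD600 near 0.5, cultures sampled hourly, flipped fraction per protease–substrate barcode pair counted by paired-end Illumina sequencing.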", "data": [{"variants_of": "B1", "experiment": "raw area under fraction-flipped curve 0-4 h after induction (AUC4h, not background-subtracted), DNA-recorder readout of cleavage of the substrate (dimensionless); higher = more cleavage of the substrate by the protease variant", "conditions": "temperature: 34 °C; time window: 0-4 h after rhamnose induction", "values": [{"variant": "MGESLFKGPRDYNPISSSICHLTNESDGHTTSLYGIGFGPFIITNKHLFRRNNGTLVVQSLHGVFKVKATTTLQQHLVDGRDMIIIRMPKDFPPFPQKLKFREPQREERICLVTTNFQTKSMSSMVSDTSCTFPSGDGIFWKHWIQTKDGQCGSPLVSTRDGFIVGIHSASNFTNTNNYFTSVPKNFMELLTNQEAQQWVSGWRLNADSVLWGGHKVFMVKPEEPFQPVKEATQL", "note": "[D69A]", "area with substrate ENEYFQS": 0.0662, "area with substrate ENTYFQS": 0.0547}, {"variant": "MGESLFKGPRDYNPISSSICHLTNESDGHTTSLYGIGFGPFIITNKHLFRRNNGTLVVQSLHGVFKVKDTTTLQQHLVCGRDMIIIRMPKDFPPFPQKLKFREPQREERICLVTTNFQTKSMSSMVSDTSCTFPSGDGIFWKHWIQTKDGQCGSPLVSTRDGFIVGIHSASNFTNTNNYFTSVPKNFMELLTNQEAQQWVSGWRLNADSVLWGGHKVFMVKPEEPFQPVKEATQL", "note": "[D79C]", "area with substrate ENEYFQS": 0.0587, "area with substrate ENFYFQS": 0.0482, "area with substrate ENKYFQS": 0.0549, "area with substrate ENNYFQS": 0.0634, "area with substrate ENVYFQS": 0.0859}, {"variant": "MGESLFKGPRDYNPISSSICHLTNESDGHTTSLYGIGFGPFIITNKHLFRRNNGTLVVQSLHGVFKVKDTTTLQQHLVDGRDMIIIEMPKDFPPFPQKLKFREPQREERICLVTTNFQTKSMSSMVSDTSCTFPSGDGIFWKHWIQTKDGQCGSPLVSTRDGFIVGIHSASNFTNTNNYFTSVPKNFMELLTNQEAQQWVSGWRLNADSVLWGGHKVFMVKPEEPFQPVKEATQL", "note": "[R87E]", "area with substrate ENEYFQS": 0.0615, "area with substrate ENHYFQS": 0.0483, "area with substrate ENKYFQS": 0.062, "area with substrate ENRYFQS": 0.0554, "area with substrate ENTYFQS": 0.0488, "area with substrate ENVYFQS": 0.0813}, {"variant": "MGESLFKGPRDYNPISSSICHLTNESDGHTTSLYGIGFGPFIITNKHLFRRNNGTLVVQSLHGVFKVKDTTTLQQHLVDGRDMIIIRMIKDFPPFPQKLKFREPQREERICLVTTNFQTKSMSSMVSDTSCTFPSGDGIFWKHWIQTKDGQCGSPLVSTRDGFIVGIHSASNFTNTNNYFTSVPKNFMELLTNQEAQQWVSGWRLNADSVLWGGHKVFMVKPEEPFQPVKEATQL", "note": "[P89I]", "area with substrate ENEYFQS": 0.0266, "area with substrate ENFYFQS": 0.0558, "area with substrate ENIYFQS": 0.0696, "area with substrate ENRYFQS": 0.0398, "area with substrate ENTYFQS": 0.0633, "area with substrate ENVYFQS": 0.0419}, {"variant": "MGESLFKGPRDYNPISSSICHLTNESDGHTTSLYGIGFGPFIITNKHLFRRNNGTLVVQSLHGVFKVKDTTTLQQHLVDGRDMIIIRMPKDWPPFPQKLKFREPQREERICLVTTNFQTKSMSSMVSDTSCTFPSGDGIFWKHWIQTKDGQCGSPLVSTRDGFIVGIHSASNFTNTNNYFTSVPKNFMELLTNQEAQQWVSGWRLNADSVLWGGHKVFMVKPEEPFQPVKEATQL", "note": "[F92W]", "area with substrate ENEYFQS": 0.0713, "area with substrate ENSYFQS": 0.0499, "area with substrate ENVYFQS": 0.0842, "area with substrate ENYYFQS": 0.067}, {"variant": "MGESLFKGPRDYNPISSSICHLTNESDGHTTSLYGIGFGPFIITNKHLFRRNNGTLVVQSLHGVFKVKDTTTLQQHLVDGRDMIIIRMPKDFPLFPQKLKFREPQREERICLVTTNFQTKSMSSMVSDTSCTFPSGDGIFWKHWIQTKDGQCGSPLVSTRDGFIVGIHSASNFTNTNNYFTSVPKNFMELLTNQEAQQWVSGWRLNADSVLWGGHKVFMVKPEEPFQPVKEATQL", "note": "[P94L]", "area with substrate ENEYFQS": 0.0523, "area with substrate ENFYFQS": 0.0686, "area with substrate ENIYFQS": 0.141, "area with substrate ENNYFQS": 0.0642, "area with substrate ENPYFQS": 0.0634, "area with substrate ENQYFQS": 0.051, "area with substrate ENTYFQS": 0.0433}, {"variant": "MGESLFKGPRDYNPISSSICHLTNESDGHTTSLYGIGFGPFIITNKHLFRRNNGTLVVQSLHGVFKVKDTTTLQQHLVDGRDMIIIRMPKDFPPFPQKLKFREPQREERICLVTTNFQTKSMSSMVSDTSLTFPSGDGIFWKHWIQTKDGQCGSPLVSTRDGFIVGIHSASNFTNTNNYFTSVPKNFMELLTNQEAQQWVSGWRLNADSVLWGGHKVFMVKPEEPFQPVKEATQL", "note": "[C131L]", "area with substrate ENEYFQS": 0.0592, "area with substrate ENMYFQS": 0.0593}, {"variant": "MGESLFKGPRDYNPISSSICHLTNESDGHTTSLYGIGFGPFIITNKHLFRRNNGTLVVQSLHGVFKVKDTTTLQQHLVDGRDMIIIRMPKDFPPFPQKLKFREPQREERICLVTTNFQTKSMSSMVSDTSCTFPMGDGIFWKHWIQTKDGQCGSPLVSTRDGFIVGIHSASNFTNTNNYFTSVPKNFMELLTNQEAQQWVSGWRLNADSVLWGGHKVFMVKPEEPFQPVKEATQL", "note": "[S135M]", "area with substrate ENEYFQS": 0.0503, "area with substrate ENFYFQS": 0.0757, "area with substrate ENNYFQS": 0.0718, "area with substrate ENPYFQS": 0.0523, "area with substrate ENQYFQS": 0.0847, "area with substrate ENRYFQS": 0.0491, "area with substrate ENSYFQS": 0.0587, "area with substrate ENVYFQS": 0.0524}, {"variant": "MGESLFKGPRDYNPISSSICHLTNESDGHTTSLYGIGFGPFIITNKHLFRRNNGTLVVQSLHGVFKVKDTTTLQQHLVDGRDMIIIRMPKDFPPFPQKLKFREPQREERICLVTTNFQTKSMSSMVSDTSCTFPSGDGIFWKHWIQTKDGQCGSPLCSTRDGFIVGIHSASNFTNTNNYFTSVPKNFMELLTNQEAQQWVSGWRLNADSVLWGGHKVFMVKPEEPFQPVKEATQL", "note": "[V157C]", "area with substrate ENEYFQS": 0.0675, "area with substrate ENFYFQS": 0.0545, "area with substrate ENGYFQS": 0.0555, "area with substrate ENHYFQS": 0.0454, "area with substrate ENMYFQS": 0.0599, "area with substrate ENQYFQS": 0.0634, "area with substrate ENRYFQS": 0.0563}, {"variant": "MGESLFKGPRDYNPISSSICHLTNESDGHTTSLYGIGFGPFIITNKHLFRRNNGTLVVQSLHGVFKVKDTTTLQQHLVDGRDMIIIRMPKDFPPFPQKLKFREPQREERICLVTTNFQTKSMSSMVSDTSCTFPSGDGIFWKHWIQTKDGQCGSPLVTTRDGFIVGIHSASNFTNTNNYFTSVPKNFMELLTNQEAQQWVSGWRLNADSVLWGGHKVFMVKPEEPFQPVKEATQL", "note": "[S158T]", "area with substrate ENEYFQS": 0.0782, "area with substrate ENIYFQS": 0.0957, "area with substrate ENKYFQS": 0.0571, "area with substrate ENMYFQS": 0.078, "area with substrate ENYYFQS": 0.0653}, {"variant": "MGESLFKGPRDYNPISSSICHLTNESDGHTTSLYGIGFGPFIITNKHLFRRNNGTLVVQSLHGVFKVKDTTTLQQHLVDGRDMIIIRMPKDFPPFPQKLKFREPQREERICLVTTNFQTKSMSSMVSDTSCTFPSGDGIFWKHWIQTKDGQCGSPLVSTRDGFIVGIHSASNFTNTNNYFTSVPDNFMELLTNQEAQQWVSGWRLNADSVLWGGHKVFMVKPEEPFQPVKEATQL", "note": "[K185D]", "area with substrate ENEYFQS": 0.0747, "area with substrate ENGYFQS": 0.068, "area with substrate ENHYFQS": 0.0555, "area with substrate ENMYFQS": 0.0752, "area with substrate ENQYFQS": 0.0846, "area with substrate ENRYFQS": 0.0277, "area with substrate ENTYFQS": 0.0598}, {"variant": "MGESLFKGPRDYNPISSSICHLTNESDGHTTSLYGIGFGPFIITNKHLFRRNNGTLVVQSLHGVFKVKDTTTLQQHLVDGRDMIIIRMPKDFPPFPQKLKFREPQREERICLVTTNFQTKSMSSMVSDTSCTFPSGDGIFWKHWIQTKDGQCGSPLVSTRDGFIVGIHSASNFTNTNNYFTSVPRNFMELLTNQEAQQWVSGWRLNADSVLWGGHKVFMVKPEEPFQPVKEATQL", "note": "[K185R]", "area with substrate ENEYFQS": 0.0577, "area with substrate ENGYFQS": 0.0541, "area with substrate ENHYFQS": 0.0646, "area with substrate ENIYFQS": 0.0881, "area with substrate ENNYFQS": 0.0554, "area with substrate ENQYFQS": 0.0598, "area with substrate ENTYFQS": 0.0635, "area with substrate ENYYFQS": 0.0463}]}]}
